This note sets out measurements from patent US20150010589A1 (published 2015).

The target of the assay is von Willebrand factor (vWf factor VIII-free, Haematologic Technologies Inc) (Homo sapiens (Human), UniProt P04275 764-2813, Plasma-derived glycoprotein, a disulfide-linked multimer of this subunit. The letters cannot carry the glycans or the inter-chain disulfides.). Nature of the assay: SPR. Background: SPR reads the build-up and loss of mass on a sensor chip optically.

B1: recombinant Aegyptin (mature protein with C-terminal 6xHis tag, expressed in 293-F cells) (other)
chain: RPMPEDEEPVAEGGDDDASGESEGEEETTDDAGGDGGEEENEGEEHAGDKDAGGEDTGKEENTGHDDAGEEDAGEEDAGEEDAGEEDAGEEDAEKEEGEKEDAGDDAGSDDGEEDSTGGDEGEDNAEDSKGSEKNDPADTYRQVVALLDKDTKVDHIQSEYLRSALNNDLQSEVRVPVVEAIGRIGDYSKIQGCFKSMGKDVKKVISEEEKKFKSCMSKKKSEYQCSEDSFAAAKSKLSPITSKIKSCVSSKGRHHHHHH
On to B1, for which the binding result is listed as “no binding”.
